Our source for the viability, T/C and IC50 values is PubChem BioAssay AID1919008 (Molecular Pharmacology Branch, DTP, NCI, 2023).

Some entries of the source have several records that differ or are many. The list is limited to them. There may be further records. Results that share an entry are repeated measurements across runs, samples, wells, individuals or studies. Marks such as (2×) say how often a value occurs here. Some results are limits rather than exact numbers.

This test concerns DMS-114 complex spheroids with HUVEC/MSC, growth % test/control. As to the kind of experiment: Anticancer human tumor DMS-114 cell line growth inhibition [AhR].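 On all read-outs here: spheroids exposed to agents for 7 days before readout.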 The following applies: for viability, T/C: stronger effect = lower value; for IC50: compound alone. The source says:
Multicellular complex tumor spheroid response to aryl hydrocarbon receptor antagonists in combination with a variety of drugs and investigational agents in selected tumor cell lines
The current study was undertaken to assess response to aryl hydrocarbon receptor antagonists in combination with standard-of-care drugs and investigational agents in solid tumor complex spheroid models. Complex spheroids include a stromal component modeled by human endothelial cells (HUVEC) and fibroblasts modeled by human mesenchymal stem cells (MSCs). The concentration ranges selected for each drug and investigational agent were based upon clinically achievable concentrations if the clinical Cmax of the agent was known.
Compounds. The drugs and investigational agents: BAY 2416964 (NSC825713), GNF351 (NSC835774), CH-223191 (NSC835775), CPI-455 (NSC825282), aza-TdCyd (NSC777586), decitabine (NSC127716), belinostat (NSC758774), entinostat (NSC756642), pevonedistat (NSC761192), tazemetostat (NSC777109), talazoparib (NSC765396), olaparib (NSC753686), selinexor (NSC780203), nedisertib (M3814, NSC802822), bortezomib (NSC756655), venetoclax (NSC766270), doxorubicin (NSC123127), elimusertib (BAY189344, NSC800525), ceralasertib (AZD6738, NSC777638), TAK-243 (NSC785004), alisertib (NSC759677), etoposide (NSC141540), topotecan (NSC609699), eribulin (NSC707389), gemcitabine (NSC613327), carboplatin (NSC241240), cisplatin (NSC119875), and SN-38 (NSC673596) were obtained from the National Cancer Institute (NCI) Developmental Therapeutics Program Chemical Repository (32). The FDA-approved anticancer drug set is available from the Developmental Therapeutics Program at https://dtp.cancer.gov/organization/dscb/obtaining/available plates.htm. […] The stock solutions were prepared in dimethyl sulfoxide (DMSO, Sigma-Aldrich, St. Louis, MO, cat. D2650), except for the platinum compounds which were prepared in saline (Quality Biological, Gaithersburg, MD, cat. 114-055-101), at 800-fold the tested concentration and stored at -70 degrees C prior to their use. All drugs and investigational agents were tested over a range starting from a high concentration at or near the clinical Cmax and decreasing in half-log increments. If the clinical Cmax for an agent had not been determined, the highest concentration tested was 10 microM (Table 1).
Cell Culture. All cells were maintained in an incubator at 37 degrees C and 5% CO2 with 95% humidity. The PDC lines were cultured according to standard operating procedures established by the NCI PDMR (https://pdmr.cancer.gov). Briefly, all PDCs were thawed and cultured in Matrigel-coated flasks prepared with a working solution of 1X Ham's F-12 nutrient mix, without supplementation (Invitrogen, Waltham, MA, cat. 11765054), 100 U/mL penicillin-streptomycin (Invitrogen, cat. 15140122), and 2.5% Matrigel (Corning Inc., Corning, NY, cat. 354248) for the first three passages. All PDCs were cultured in complete DMEM/F-12 media containing advanced DMEM/F-12 (Invitrogen, cat. 12634028), 4.9% defined fetal bovine serum, heat inactivated (HyClone Laboratories Inc., Logan, UT, cat. SH30070.03HI), 389 ng/mL hydrocortisone (Sigma-Aldrich, cat. H4001), 9.7 ng/mL human EGF recombinant protein (Invitrogen, cat. PHG0313), 23.4 microg/mL adenine (Sigma-Aldrich, cat. A2786), 97.3 U/mL penicillin-streptomycin (Invitrogen, cat. 15140122), 1.9 mM L-glutamine (Invitrogen, cat. 25030081), and 9.7 microM Y-27632 dihydrochloride (Tocris Bioscience, Bristol, United Kingdom, cat. 1254). The PDCs were cultured in complete DMEM/F12 media without 10 microM Y-27632 dihydrochloride for at least two passages prior to the screen. The established cell lines NCI-H1341 and […] were cultured in DMEM/F-12, HEPES (Invitrogen, cat. 11330032), 5% defined fetal bovine serum (HyClone Laboratories Inc., cat. SH30070.03), ITS premix universal culture supplement [insulin (5 microg/mL), transferrin (5 microg/mL), and selenious acid (5 ng/mL)] […]

As to `Cc1ccccc1N=Nc1ccc(NC(=O)c2ccnn2C)c(C)c1`, under “compound alone 3.16 µM”, the viability, T/C is 92.2, 92.6, 107, 88.2, 110, 93.8, 86.9, 103, 94.2, 94, 99.2, 92, 105, 114, 104, 99.8, 96.9, 92.8, 101, 96.1%.
What is called IC50 is the concentration at which inhibition is half-maximal. As to `Cc1cncc(-c2nc(NCCc3c[nH]c4ccccc34)c3ncn(C(C)C)c3n2)c1`, the viability, T/C runs as follows: (compound alone 0.1 µM) 98.4, 90, 96, 94.3, 109, 98.6, 106 (2×), 94.6, 102, 99.1, 95.9, 95.8, 103, 98.1, 101, 96.7, 91.5, 100, 81.2%; (compound alone 0.316 µM) 93.8, 94.5, 88.2, 118, 102, 99.5, 92.6, 96.3, 94.7, 100, 97.9, 95.1, 104, 88, 90, 87.3, 95.6, 116, 95.4, 103%; (compound alone 1 µM) 95, 88.9, 96.6, 91.3, 123, 94.5, 111 (2×), 108 (2×), 92.6, 105, 109, 93.4, 88.4, 97.2, 97.3, 106, 91.2, 102%; (compound alone 3.16 µM) 101 (2×), 81.3, 95.1, 88.6, 95.4, 99, 74.6, 86.2, 97.2, 93.6, 85, 108, 86.5 (2×), 83, 98.7, 85.3, 89, 97.6%; (compound alone 10 µM) 46, 44.2, 45.2, 49, 84.2, 41.2, 32.5, 36.4, 40.8, 38.7, 59.3, 50.2, 58.4, 53.8, 61.1, 53.5, 55.5, 58.8, 52.6, 61.9%. Also, the IC50 (run of 07/18/2022) is 9.14 µM, 8.38 µM, 8.92 µM, 9.8 µM, > 10 µM, 8.29 µM, 7.4 µM, 6.63 µM, 7.95 µM, 8.01 µM, 6.49 µM, 7.33 µM, 7.8 µM, 8.73 µM.
With `COc1cc(Nc2ncc3c(n2)-c2ccc(Cl)cc2C(c2c(F)cccc2OC)=NC3)ccc1C(=O)O`, the IC50 is < 31.6 nM (2×) and > 10 µM.
Take `CC(CO)NC(=O)c1cc(-c2ccc(Cl)cc2)nn(-c2cnn(C)c2)c1=O` (configuration not stated): the viability, T/C is 95.7 (2×), 98.1, 95.2, 89.4, 97.8, 89.6, 96.4, 90.9, 89.9, 87.1, 104, 113, 99, 93.1, 90, 118, 91.3, 109, 97.2, 102% (compound alone 0.316 µM); 96.4, 90.7, 96.7, 115, 83.7, 101, 107, 95.6, 92.2, 102 (2×), 95.7, 91.5, 97, 103 (2×), 94.6, 92.5, 87.5% (compound alone 3.16 µM); 100, 92.9, 106 (2×), 90.4, 94.3, 82.2, 99.8, 93.7 (2×), 102 (3×), 95.2, 120, 96.5, 103, 92.2, 89.5% (compound alone 10 µM).
Regarding `CC1COCCN1c1cc(-c2ccnn2C)c2ccnc(-c3ccn[nH]3)c2n1` (configuration not stated), the IC50 was 76.6 nM, 36 nM, 538 nM.
